Data published in the supplement of paper PMC12217912.
The other results are listed elsewhere or left out. Sequences were assembled here from the parent chain. Values near 0.05 are background.

B1: TEV protease; numbered along this chain (parent)
chain: MGESLFKGPRDYNPISSSICHLTNESDGHTTSLYGIGFGPFIITNKHLFRRNNGTLVVQSLHGVFKVKDTTTLQQHLVDGRDMIIIRMPKDFPPFPQKLKFREPQREERICLVTTNFQTKSMSSMVSDTSCTFPSGDGIFWKHWIQTKDGQCGSPLVSTRDGFIVGIHSASNFTNTNNYFTSVPKNFMELLTNQEAQQWVSGWRLNADSVLWGGHKVFMVKPEEPFQPVKEATQL

Variants of: B1
Experiment: raw area under fraction-flipped curve 0-4 h after induction (AUC4h, not background-subtracted), DNA-recorder readout of cleavage of the substrate (dimensionless); higher = more cleavage of the substrate by the protease variant
Conditions: temperature: 34 °C; time window: 0-4 h after rhamnose induction
Procedure: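 In vivo DNA recorder in E. coli TOP10(DE3) ΔrhaA at 34 °C. Each TEVp single-site mutant (parent TEVp 0) is paired with a single-site variant of the 7-mer TEVs (canonical ENLYFQ|S). The substrate sits between flexible linkers in a Bxb1-sfGFP-TEVs-SsrA fusion, so cleavage stabilises Bxb1 and speeds flipping of a recombination array, read by NGS. The value is the raw area under the fraction-flipped curve over 0-4 h after rhamnose induction (AUC4h), with ≥20 reads per time point. It is not background-subtracted; inactive controls average about 0.047.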
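Further: Bxb1 expression induced with 0.2% (w/v) L-rhamnose at OD600 near 0.5, cultures sampled hourly, flipped fraction per protease–substrate barcode pair counted by paired-end Illumina sequencing.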

Row | Variant | area with substrate CNLYFQS | area with substrate DNLYFQS | area with substrate HNLYFQS | area with substrate INLYFQS | area with substrate KNLYFQS | area with substrate LNLYFQS | area with substrate MNLYFQS | area with substrate PNLYFQS | area with substrate SNLYFQS | area with substrate TNLYFQS | area with substrate WNLYFQS | area with substrate FNLYFQS | area with substrate GNLYFQS | area with substrate NNLYFQS | area with substrate YNLYFQS | area with substrate QNLYFQS | area with substrate RNLYFQS | area with substrate VNLYFQS
1 | F38K | 0.0536 | 0.0454 | 0.0462 | 0.0474 | 0.0461 | 0.0562 | 0.0534 | 0.0522 | 0.0525 | 0.0554 | 0.0508 |  |  |  |  |  |  | 
2 | G39F | 0.0454 | 0.0494 | 0.0438 | 0.0428 | 0.0441 | 0.0443 |  | 0.0512 | 0.0572 | 0.041 | 0.0412 | 0.0473 | 0.0442 | 0.0472 | 0.008 |  |  | 
3 | G39L | 0.0282 | 0.0326 | 0.0365 |  | 0.0386 | 0.0559 |  |  | 0.0628 | 0.0338 | 0.0287 | 0.0386 | 0.0434 | 0.0431 |  | 0.036 | 0.0499 | 
4 | G39Y | 0.0494 | 0.0433 | 0.0251 |  |  | 0.0462 | 0.0521 |  | 0.024 | 0.0482 | 0.0365 | 0.0696 |  |  | 0.0368 | 0.0467 | 0.0383 | 
5 | P40Q | 0.0721 | 0.0644 | 0.0568 |  | 0.0636 | 0.0691 |  | 0.0633 |  | 0.0613 | 0.054 | 0.0733 |  | 0.0556 |  | 0.0757 |  | 
6 | F41A | 0.042 | 0.0745 | 0.0565 | 0.0026 | 0.0558 | 0.062 |  | 0.0574 | 0.0557 | 0.0693 | 0.0459 |  | 0.0686 | 0.0699 | 0.0501 |  | 0.0472 | 
7 | F41G | 0.0478 | 0.0724 | 0.045 | 0.0442 | 0.0417 |  |  | 0.0566 | 0.0469 | 0.0497 | 0.0555 | 0.0555 |  |  | 0.036 | 0.0034 | 0.0532 | 
8 | F41P | 0.0445 | 0.0476 | 0.0412 |  | 0.0554 | 0.0453 | 0.0533 | 0.0517 |  | 0.0582 | 0.0491 | 0.0406 |  |  | 0.0554 |  |  | 0.0396
9 | F41Q | 0.081 | 0.0682 | 0.0411 | 0.05 | 0.0545 | 0.0412 | 0.0504 | 0.0404 |  | 0.0618 | 0.0541 |  | 0.0604 | 0.0512 | 0.0481 |  |  | 
10 | I42V | 0.0884 | 0.08 | 0.0807 |  |  |  | 0.1 | 0.0721 |  | 0.0798 | 0.0521 | 0.058 |  | 0.0706 | 0.0525 |  |  | 
11 | I43D | 0.0355 | 0.0526 | 0.0554 | 0.0385 | 0.0447 | 0.0311 | 0.0325 | 0.0389 | 0.0453 | 0.0178 | 0.0354 | 0.041 | 0.0379 |  | 0.0334 | 0.0501 |  | 0.0434
12 | I43H | 0.034 | 0.0627 | 0.0451 | 0.0461 | 0.0491 | 0.0344 |  |  | 0.0528 | 0.0479 | 0.0459 | 0.0504 | 0.082 | 0.058 | 0.0483 |  |  | 
13 | T44I | 0.045 | 0.0638 | 0.0471 | 0.0564 | 0.0571 | 0.057 | 0.0482 | 0.0582 |  | 0.0577 | 0.052 | 0.0602 | 0.0601 | 0.0603 |  | 0.0424 |  | 0.0599
14 | T44N | 0.0501 | 0.046 | 0.0347 | 0.043 | 0.0619 |  |  | 0.0473 | 0.044 | 0.0504 | 0.038 |  |  | 0.0437 | 0.0444 |  |  | 0.0409
15 | N45E | 0.0796 | 0.0677 |  | 0.0513 |  | 0.059 | 0.0505 |  |  | 0.0521 | 0.0486 |  |  | 0.0567 | 0.0494 |  |  | 0.0494
16 | N45P | 0.0815 | 0.0639 |  | 0.0641 | 0.0602 | 0.0544 | 0.0723 | 0.0564 |  | 0.0563 | 0.0619 |  |  | 0.0594 |  |  |  | 
17 | F49D | 0.0549 | 0.0483 | 0.0707 | 0.0571 | 0.069 | 0.057 | 0.0377 | 0.0469 | 0.061 | 0.0745 | 0.0464 |  |  |  | 0.0616 |  |  | 0.0513
18 | F49Q | 0.0488 | 0.0512 | 0.0558 | 0.0538 | 0.0699 |  |  |  | 0.0621 | 0.0576 | 0.044 | 0.056 |  | 0.0543 | 0.0544 |  | 0.0603 | 0.0585
19 | F49Y | 0.0651 | 0.0641 | 0.0559 |  | 0.0563 |  | 0.0364 | 0.0611 |  | 0.0608 | 0.0589 | 0.0558 |  | 0.0838 | 0.0648 | 0.0858 | 0.055 | 
20 | R50C | 0.0821 | 0.0694 |  |  |  | 0.0527 |  | 0.0487 | 0.0655 | 0.0623 | 0.0694 | 0.0744 |  |  |  |  |  | 0.0709
21 | N52Q | 0.0359 | 0.0606 | 0.0647 | 0.0326 | 0.0606 | 0.0565 | 0.0611 | 0.053 | 0.0642 | 0.0671 | 0.0587 | 0.0543 | 0.0538 |  |  |  | 0.0662 | 0.0686
22 | N53D | 0.0787 | 0.0917 |  | 0.0417 | 0.098 |  |  | 0.0703 | 0.0533 | 0.0603 | 0.0575 |  | 0.0603 |  | 0.0691 | 0.0552 | 0.0705 | 
23 | N53Q | 0.0676 | 0.0687 | 0.054 | 0.0686 | 0.0668 | 0.0795 | 0.0799 | 0.0567 |  | 0.061 | 0.0648 | 0.0906 |  |  | 0.0654 |  | 0.0515 | 
24 | G54A | 0.0628 | 0.0656 | 0.0599 |  | 0.0604 | 0.0599 |  | 0.0787 | 0.067 | 0.0621 | 0.0613 | 0.0557 |  | 0.0651 | 0.0615 |  |  | 0.0501
25 | G54C | 0.05 | 0.0607 | 0.0796 |  | 0.0621 |  |  | 0.0583 | 0.0828 | 0.0659 | 0.0605 |  | 0.0392 | 0.0705 | 0.055 | 0.0312 |  | 0.0696
26 | G54K | 0.0621 | 0.0705 | 0.0632 |  | 0.0539 |  |  |  | 0.0622 | 0.0513 |  |  |  |  |  |  |  | 
27 | G54M | 0.064 | 0.0591 | 0.052 |  | 0.046 | 0.0687 | 0.0506 | 0.0559 | 0.0584 | 0.0536 | 0.0477 | 0.0626 | 0.08 | 0.0651 | 0.0631 |  | 0.0464 | 
28 | G54W | 0.0521 | 0.0577 | 0.0512 | 0.0634 | 0.0608 | 0.0621 | 0.0422 | 0.0584 |  | 0.0603 | 0.0576 |  |  | 0.0555 | 0.054 |  |  | 
